Measurements taken from PubChem BioAssay (NCI).
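Assay format: 96-well plates, 48-hour exposure. GI50 marks 50% less growth. TGI is the concentration that stops growth completely.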

Tested on: NCI-H322M lung
Assay: NCI-60 cell line screen, 48 h

In the case of `OC1CCN(CCCOc2c3ccc(Cl)cc3nc3c2oc2ccccc23)CC1`, the GI50 is reported as 1.29 µM and the TGI is reported as 6.31 µM.

`CCCn1cnc2c(c1=N)C(c1ccc(Cl)cc1)c1sc3c(C)cccc3c1O2` (centres undefined) was tested, and the GI50 was 0.698 µM and the TGI was 27.8 µM.
